# Measurements reported in PubChem BioAssay AID1347165 (National Center for Advancing Translational Sciences (NCATS), 2019).
# Out of some 220,000 compounds screened, about 5,700 (2.6%) were called active. The shares of active, inactive and inconclusive entries below differ from those in the screen. Calls come from the whole dose curve; as a rule, active = well fitted inhibition curve with a large enough effect; inconclusive = small, poorly fitted or top-dose-only effect; inactive = no such curve, though single readings can be large or run the other way. Potencies beside an inconclusive call are fits to weak or partial responses and may not hold up.
# Target: Lysine-specific demethylase 5B (Homo sapiens) (UniProt Q9UGL1)
# Sequence of UniProt Q9UGL1 (Q9UGL1 whole entry, looked up): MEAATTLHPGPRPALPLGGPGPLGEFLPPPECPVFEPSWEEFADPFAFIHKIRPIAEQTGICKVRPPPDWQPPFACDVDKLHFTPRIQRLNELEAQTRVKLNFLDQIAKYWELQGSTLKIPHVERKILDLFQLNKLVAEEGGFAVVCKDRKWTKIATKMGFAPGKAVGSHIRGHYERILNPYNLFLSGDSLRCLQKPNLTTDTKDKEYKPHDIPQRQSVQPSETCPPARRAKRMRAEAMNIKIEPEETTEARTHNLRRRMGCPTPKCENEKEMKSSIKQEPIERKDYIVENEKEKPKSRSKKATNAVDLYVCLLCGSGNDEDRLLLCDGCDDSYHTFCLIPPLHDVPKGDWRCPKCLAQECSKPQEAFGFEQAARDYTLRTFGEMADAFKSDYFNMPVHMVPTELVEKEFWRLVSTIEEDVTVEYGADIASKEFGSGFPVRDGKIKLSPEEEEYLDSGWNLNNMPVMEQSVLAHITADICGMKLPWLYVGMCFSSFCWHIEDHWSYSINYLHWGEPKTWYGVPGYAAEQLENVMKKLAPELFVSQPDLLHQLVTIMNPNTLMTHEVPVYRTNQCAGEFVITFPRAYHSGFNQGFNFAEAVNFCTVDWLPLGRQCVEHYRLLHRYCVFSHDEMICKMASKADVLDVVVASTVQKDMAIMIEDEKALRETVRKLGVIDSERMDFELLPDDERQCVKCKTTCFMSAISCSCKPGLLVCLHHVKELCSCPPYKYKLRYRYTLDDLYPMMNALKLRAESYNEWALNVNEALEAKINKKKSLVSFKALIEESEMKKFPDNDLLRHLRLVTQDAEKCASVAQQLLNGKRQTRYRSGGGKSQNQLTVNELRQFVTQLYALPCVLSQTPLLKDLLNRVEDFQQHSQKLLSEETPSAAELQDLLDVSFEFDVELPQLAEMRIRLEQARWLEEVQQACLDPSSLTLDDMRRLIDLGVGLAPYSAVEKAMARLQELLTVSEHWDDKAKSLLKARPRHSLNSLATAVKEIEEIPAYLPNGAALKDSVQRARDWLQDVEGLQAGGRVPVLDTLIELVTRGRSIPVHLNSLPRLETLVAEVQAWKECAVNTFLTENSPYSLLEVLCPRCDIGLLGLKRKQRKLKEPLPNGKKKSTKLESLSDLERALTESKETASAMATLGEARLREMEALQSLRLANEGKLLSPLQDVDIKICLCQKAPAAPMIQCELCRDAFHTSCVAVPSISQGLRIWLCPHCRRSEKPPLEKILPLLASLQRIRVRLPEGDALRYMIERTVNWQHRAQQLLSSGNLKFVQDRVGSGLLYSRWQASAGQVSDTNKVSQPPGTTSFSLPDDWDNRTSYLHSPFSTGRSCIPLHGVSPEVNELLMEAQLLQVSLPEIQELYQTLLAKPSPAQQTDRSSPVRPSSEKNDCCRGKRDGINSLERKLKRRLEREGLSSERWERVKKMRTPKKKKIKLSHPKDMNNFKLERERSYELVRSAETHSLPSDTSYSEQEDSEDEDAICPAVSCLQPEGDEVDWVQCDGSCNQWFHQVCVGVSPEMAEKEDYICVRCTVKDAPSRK
# Experiment: Primary screen for KDM5B Histone Demethylases FDH-coupled qHTS; note: nearly all actives have a fitted effect of over 70% in size; for activity change, negative = inhibition: 0% is about no effect
# Conditions: FDH-coupled NADH fluorescence (FDH is formaldehyde dehydrogenase); activity change, negative = inhibition: at 57.7 µM (top of the series) unless noted
# How it was run: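 KDM5BΔAP (200 nM final) in 50 mM HEPES pH 7.5, 0.01% Tween-20 was preincubated 10 min at RT with compound over a concentration range. Substrate mix (H3K4me3 12.5 µM, α-KG 25 µM, Fe²⁺, ascorbate, NAD⁺, FDH) was added, and NADH fluorescence change over 30 min gave dose-response curves.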
# Potency is the fitted concentration of half-maximal effect; tags give direction and shape of the fitted curve.
SMILES,Potency,"activity change, negative = inhibition"
Fc1ccc(-c2cc(-c3cn[nH]c3)c3cncn3c2)cc1,"inconclusive: 31.6 µM [inhibitor, partial curve, poor fit]",
Clc1cnc(N/N=C/c2ccc(Br)cc2)c(Cl)c1,"inconclusive: 22.4 µM [inhibitor, partial curve, poor fit]",
COC(=O)[C@@H](Cc1cccnc1)NC(=O)[C@H]1CN(C(=O)c2cccnc2)CCN1C(=O)C1CCCCC1,inactive,
CC(C)(Oc1ccc(Cl)cc1)C(=O)Nc1ccc(-c2nc3ncccc3o2)cc1,"inconclusive: 2.82 µM [inhibitor, full curve, poor fit]",
O=C(N[C@@H]1CN(c2ncccn2)C[C@H]1CO)c1ccco1,"inconclusive: 22.4 µM [inhibitor, partial curve]",
Cc1ccc(Cn2cc(S(=O)(=O)c3ccccc3)c(=O)c3cc(F)c(N4CCOCC4)cc32)cc1,"inconclusive: 4.47 µM [inhibitor, partial curve, poor fit]",
CC(C)c1noc(C2CCCN(C(=O)C3(c4ccccc4)CC3)CCC(=O)NCC2)n1 (configuration not stated),inactive,
Cc1ccnc(N/C=C(/Cl)C(=O)C(F)(F)F)c1,inactive,
CCOc1ccccc1N(C)C(=O)c1sc2nc3n(c(=O)c2c1C)CCCC3,"inconclusive: 5.62 µM [inhibitor, partial curve, poor fit]",
Cc1ccc(CC(=O)NC2CCN(c3cnn(C)c(=O)c3)CC2)cc1,inactive,
CN1CC(=O)N(C2CCC2)Cc2c(NC3CCCC3)ncnc21,inactive,
Cc1cn2nnc(C(=O)NC3CCN(Cc4ccccc4)CC3)c2c(=O)[nH]1,"inconclusive: 28.2 µM [inhibitor, single point]",
Cc1cn2nc(C(=O)Nc3ccccc3C)cc2c(N2CCSCC2)n1,active: 35.5 µM,
CCCCN(CCCNC(=O)c1cc(Nc2ccc(OC)cc2OC)nc2ccccc12)Cc1ccccc1,"inconclusive: 35.5 µM [inhibitor, single point]",
CCC1=C(C(=O)OC)C(c2cccc(OC)c2OC)N2C(CC(=O)N3CCOCC3)=CSC2=N1 (configuration not stated),"inconclusive: 28.2 µM [inhibitor, partial curve]",
CCOC(=O)c1c(NC(=O)CSc2cn(CCNC(=O)c3ccc(OC)cc3)c3ccccc23)sc2c1CCC2,"inconclusive: 6.31 µM [inhibitor, full curve, poor fit]",
COc1ccc(NC(=O)CSc2nc(-c3ccccc3)cc(-c3cc(OC)c(OC)c(OC)c3)c2C#N)c(OC)c1,"inconclusive: 28.2 µM [inhibitor, partial curve, poor fit]",
COc1ccc(-c2nnc(SCC(=O)Nc3cccc(C)c3)s2)cc1,"inconclusive: 3.55 µM [inhibitor, partial curve, poor fit]",
CCc1ccccc1NC(=O)N1c2ccccc2CC1c1nc(C2CC2)no1 (configuration not stated),"inconclusive: 28.2 µM [inhibitor, partial curve, poor fit]",
COC(=O)c1cccc(NC(=O)N2CCc3c(nc4cc(-c5ccccc5)[nH]n4c3=O)C2)c1,active: 11.2 µM,
CCOc1ccccc1NC(=O)C1CC(=O)Nc2nc3ccccc3n21 (configuration not stated),inactive,
CN(Cc1ccsc1)C(=O)CSCc1cccs1,inactive,
O=C(N1CCCC1)C1(CCO)CCN(c2ncccn2)C1 (configuration not stated),active: 28.2 µM,

SMILES,Potency,"activity change, negative = inhibition"
O=C1CCN(Cc2ccncc2)CCCC(C(=O)NCc2cccc(C(F)(F)F)c2)CCN1 (configuration not stated),"inconclusive: 22.4 µM [inhibitor, single point]",
Cc1ccccc1OCC(=O)Nc1ccc(OCc2cc(=O)n3ccccc3n2)cc1,"inconclusive: 2.24 µM [inhibitor, partial curve, poor fit]",
CC1CCc2nc3ccc(S(=O)(=O)N4CCC(C(=O)NCc5ccccc5Cl)CC4)cc3c(C(=O)O)c2C1 (configuration not stated),"inconclusive: 15.8 µM [inhibitor, partial curve, poor fit]",
Cc1nn(-c2ccccc2)c2c1N(CCCC(=O)NCc1ccc(OC(C)C)cc1)C(=O)CS2,,inconclusive: -33.7% [inhibitor]
COc1cccc(-c2noc(CC3CCN(C(=O)CCCc4ccccc4)CC3)n2)c1,"inconclusive: 14.1 µM [inhibitor, partial curve, poor fit]",
CCCn1c2ccccc2c2cnn(CC(=O)Nc3ccccc3OC)c(=O)c21,"inconclusive: 15.8 µM [inhibitor, partial curve, poor fit]",
Cc1cccc(NC(c2cccc(Cl)c2)c2ccc3cccnc3c2O)n1 (configuration not stated),"inconclusive: 28.2 µM [inhibitor, partial curve, poor fit]",
COC(=O)C1=CNC=C(C(=O)OC)C1c1cccc(Br)c1,"inconclusive: 28.2 µM [inhibitor, partial curve, poor fit]",
CS(=O)(=O)c1cnc(NCCCc2ccccc2)nc1C1CCCNC1 (configuration not stated),"inconclusive: 25.1 µM [inhibitor, partial curve, poor fit]",
CCCCCCNC(=S)Nc1ccccc1,inactive,
COc1ccc(CNc2nc(-c3ccccc3)nn2C(=O)c2ccc(C)cc2)cc1,"inconclusive: 22.4 µM [inhibitor, single point]",
CCOc1ccc(CN2C[C@H](N(C)C)C[C@H]2C(=O)OC)cc1Cl,"inconclusive: 15.8 µM [inhibitor, partial curve, poor fit]",
COc1ccccc1-n1c(=O)[nH]c2cccnc21,"inconclusive: 39.8 µM [inhibitor, single point]",
CCCCSCCCNC(=O)c1cn(CC)c2ccc(S(=O)(=O)N3CCOCC3)cc2c1=O,inactive,
COC(=O)c1ccc(NC(=O)c2cc3cc(C)ccc3n2C)cc1,"inconclusive: 31.6 µM [inhibitor, partial curve, poor fit]",
Cc1noc(-c2cccn3c(CNC(=O)c4ccc(C(C)(C)C)cc4)nnc23)n1,"inconclusive: 3.55 µM [inhibitor, single point]",
O=C(CCc1ncc(-c2ccc(F)cc2F)o1)Nc1ccncc1,inactive,
Cc1cc(C(=O)N2CCN(S(=O)(=O)c3ccc(F)cc3F)CC2)c(C)n1Cc1ccco1,inactive,
N#C/C(=C/c1ccccc1OCc1cccc(C(F)(F)F)c1)C(=O)NCc1ccc(F)cc1,"inconclusive: 39.8 µM [inhibitor, single point]",
COc1ccccc1N1CCN(c2nc(C)c3c(n2)CC(C)(C)CC3=O)CC1,inactive,
CCOC(=O)C(=O)Nc1ccc(C(=O)OC)cc1,inactive,
Cc1ccc(C)c(N2CCN(S(=O)(=O)c3ccc(-c4cnc(C)o4)cc3)CC2)c1,"inconclusive: 35.5 µM [inhibitor, partial curve, poor fit]",
Cc1ccc(C)c(C(=O)NCC(C)C)c1,inactive,

SMILES,Potency,"activity change, negative = inhibition"
COc1cccc(-c2nc(-c3c(C)noc3C)cc3cc(C)oc23)c1,active: 35.5 µM,
O=C(c1cc(F)ccc1F)N1CCOc2ccc(CN3CCc4ccccc4C3)cc2C1,"inconclusive: 14.1 µM [inhibitor, partial curve]",
O=C(Nc1cccc(F)c1)C1CCN(c2nc3ccccc3nc2C(F)(F)F)CC1,inactive,
Nc1nc(CN2CCN(C(=O)c3cc(Cl)cc(Cl)c3)CC2)nc2ccccc12,inactive,
COc1ccc(N2CC(NC(=O)Nc3nc4c(C)cccc4s3)CC2=O)cc1 (configuration not stated),inactive,
NS(=O)(=O)c1ccc(CCNC(=O)Cn2c(=O)c3cccn3c3ccc(F)cc32)cc1,"inconclusive: 28.2 µM [inhibitor, partial curve, poor fit]",
O=C(NCCc1ccc(F)cc1)C1CCCN1c1nc2ncccc2o1 (configuration not stated),"inconclusive: 28.2 µM [inhibitor, single point]",
CN(C)c1ccc(NCc2cccc(Br)c2)cc1,"inconclusive: 6.31 µM [inhibitor, full curve, poor fit]",
Cc1nn(CC(=O)NC(C)c2ccccc2)c(=O)c2cc3occc3n12 (configuration not stated),"inconclusive: 12.6 µM [inhibitor, partial curve, poor fit]",
COc1ccc(C2C(C(=O)Nc3ccc(C)cn3)=C(C)NC3=C2C(=O)CCC3)c(OC)c1 (configuration not stated),"inconclusive: 22.4 µM [inhibitor, partial curve, poor fit]",
COC(=O)CNC(=O)N1c2ccccc2CC1c1nc(C(C)C)no1 (configuration not stated),inactive,
COc1cc(C(=O)N(CCCN(C)C)c2nc3c(OC)cccc3s2)cc(OC)c1OC,"inconclusive: 1.12 µM [inhibitor, partial curve, poor fit]",
N#Cc1ccc(/C=C(/CC(=O)O)c2nc3ccccc3o2)cc1,"inconclusive: 28.2 µM [inhibitor, partial curve, poor fit]",
COc1ccc(CN[C@H]2[C@H](O)[C@H](O)C[C@@H]2c2ccccc2)cc1,inactive,
COc1cc(C)c(NC(=O)Cn2cnc3c2c(=O)n(C)c(=O)n3C)cc1OC,inactive,
CN(CC(=O)N1CCC(Cc2nc(C3CCOCC3)no2)CC1)S(=O)(=O)c1cnc[nH]1,"inconclusive: 22.4 µM [inhibitor, single point]",
Cc1nn2c(=O)cc(COC(=O)c3ccccc3NC(=O)C3CCCCC3)nc2s1,inactive,
CCOC(=O)C1CCN(C(=O)c2cn3ccnc(-c4ccc(OC)cc4)c3n2)CC1,active: 25.1 µM,
c1cn(-c2ccc(-c3cscn3)cc2)c(-c2cc3n(n2)CCCNC3)n1,inactive,
COc1ccc(/C=C(/C(=O)c2ccccc2)c2nc3ccccc3s2)cc1O,"inconclusive: 12.6 µM [inhibitor, partial curve, poor fit]",
Cc1c(Cl)cccc1NC(=O)C1CCCN(C(=O)Cc2cccc3ccccc23)C1 (configuration not stated),inactive,
